# Experimental data published in the supplement of paper PMC3334620.
# In all, about 33,000 sequences were measured (“E-score (-0.5 to 0.5)”: median about -0.012, highest 2% from about 0.29 on). The list shows a part of the results.
# Molecular target: T1, Ybr033w (UniProt P38073)
# T1 sequence: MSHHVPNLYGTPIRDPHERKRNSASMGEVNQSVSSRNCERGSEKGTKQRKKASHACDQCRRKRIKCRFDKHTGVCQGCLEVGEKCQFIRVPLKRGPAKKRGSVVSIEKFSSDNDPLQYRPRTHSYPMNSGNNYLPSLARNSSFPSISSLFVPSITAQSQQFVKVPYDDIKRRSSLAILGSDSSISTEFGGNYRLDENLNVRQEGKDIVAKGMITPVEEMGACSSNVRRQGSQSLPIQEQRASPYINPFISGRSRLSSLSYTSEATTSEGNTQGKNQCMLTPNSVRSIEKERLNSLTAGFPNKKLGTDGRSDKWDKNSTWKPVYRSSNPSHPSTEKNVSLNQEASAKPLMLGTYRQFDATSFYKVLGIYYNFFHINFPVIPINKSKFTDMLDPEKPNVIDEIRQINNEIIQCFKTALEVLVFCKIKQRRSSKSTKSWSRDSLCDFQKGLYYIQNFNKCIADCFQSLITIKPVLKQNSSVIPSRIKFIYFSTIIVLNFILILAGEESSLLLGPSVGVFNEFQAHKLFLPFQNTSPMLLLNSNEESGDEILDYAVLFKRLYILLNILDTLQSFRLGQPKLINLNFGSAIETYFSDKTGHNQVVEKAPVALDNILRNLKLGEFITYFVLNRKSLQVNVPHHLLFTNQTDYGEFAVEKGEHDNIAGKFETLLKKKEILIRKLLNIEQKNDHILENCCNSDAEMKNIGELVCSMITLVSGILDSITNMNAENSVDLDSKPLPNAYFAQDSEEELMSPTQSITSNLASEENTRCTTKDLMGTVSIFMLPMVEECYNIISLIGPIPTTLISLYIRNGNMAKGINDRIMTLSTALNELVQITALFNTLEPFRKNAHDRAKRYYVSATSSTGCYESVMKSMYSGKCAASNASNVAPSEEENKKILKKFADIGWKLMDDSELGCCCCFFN
# Experiment: PBM E-score (8-mer binding enrichment) (E-score (-0.5 to 0.5)); higher = stronger / more preferred TF binding; most listed sequences are background and not binding sites
# Settings: protein concentration: 200 nM; construct: GST-full length
# Experimental: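 Universal 'all 10-mer' protein binding microarrays (Agilent AMADID 015681) probed with GST-tagged S. cerevisiae TFs (full-length or DBD) made by in vitro transcription/translation (PURExpress), about 100-200 nM. Bound TF was detected with fluorescent anti-GST. Each ungapped 8-mer (which stands for itself and its reverse complement) is scored by the PBM enrichment score (E-score), a modified Wilcoxon-Mann-Whitney statistic from -0.5 to +0.5, computed with the Universal PBM Analysis Suite. Scale: above 0.35 generally sequence-specific binding.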
row,Sequence,PBM E-score
1,ACAGCTTA,0.0322
2,ACTATACA,0.164
3,TAATATGA,0.284
4,CGAGGGTA,-0.0645
5,AGTAGTTA,0.0431
6,GTAAAACA,0.0774
7,CTCGAGAA,-0.0495
8,ATGCTAGG,-0.128
9,CGCTATGA,0.0424
10,AGTCGGAT,0.173
11,CGGCATCA,-0.0412
12,GCTGGTAA,0.0232
13,CAATGAGC,-0.0648
14,AAGTCATT,0.0867
15,AGAGGTAG,-0.0839
16,TATAAAAA,0.253
17,ACCGCTAC,-0.0889
18,AGTCGCCC,-0.181
19,CGAGCCCA,-0.0979
20,CGGCGTCC,0.0115
21,AAACTCAT,0.274
22,AGCCACAC,-0.0814
23,CTGATACA,0.0296
24,CGACTACG,-0.119
25,CGCAGATC,-0.207

row,Sequence,PBM E-score
1,CGAGTCAA,-0.0691
2,TAAACTCA,0.147
3,CGGCGCCG,-0.101
4,AAGCCTAA,0.0278
5,ATGCATGA,0.149
6,CTAGACTC,-0.308
7,CAATTGTG,0.0486
8,AAGTCTCC,-0.0449
9,CATGAGCA,-0.0438
10,ATACCGTC,0.0674
11,CGAAACAG,0.0722
12,TGCGTGAA,0.0985
13,AAGGGGTA,-0.299
14,AACACCGA,-0.00424
15,GCTACCAC,-0.0343
16,CAGCTGTC,0.0183
17,AGGTGCAT,-0.0746
18,AGACATGC,-0.0452
19,AACTCTCC,-0.172
20,AGACCGTG,-0.111
21,ACGTGAGC,-0.222
22,AATCTACT,0.166
23,GCATCGAA,-0.077
24,GCATCACA,0.215
25,GTCTTGCA,0.0132

row,Sequence,PBM E-score
1,AGCTCGCC,-0.197
2,ATTCGTGG,0.0347
3,CTGCGGGA,-0.179
4,GCCTACAC,-0.134
5,GTCTGACA,0.00461
6,ACGCGTCA,0.0112
7,GAATCCGC,-0.13
8,ACCCAGGG,-0.287
9,TAACATCA,0.22
10,CCGACCGC,-0.197
11,TAGGACGA,-0.0514
12,ATCTCCGA,0.0131
13,CGCACAAC,-0.145
14,TCTTCACA,0.103
15,ACTGAGTC,-0.0352
16,GTGATATA,0.0803
17,CACCTAGC,-0.236
18,ATGAAGCC,0.199
19,AGGAATTG,0.0984
20,GGCCGCGA,-0.247
21,CAGCTGAA,-0.14
22,CCGAGTAG,0.157
23,ATCCCGGG,0.0706
24,GATGCTGA,-0.17
25,ACGGAAAG,0.0247

row,Sequence,PBM E-score
1,GACGCTAC,0.131
2,ACTAACCT,0.0958
3,TGTCACAA,0.213
4,CTATACCC,-0.0499
5,CTTACCAA,0.239
6,GCCTGTCC,-0.193
7,CCAACACG,0.0872
8,GTACCGCA,-0.0826
9,AATGAATA,0.194
10,CGGACGAG,-0.105
11,GGCCCCCA,-0.361
12,ACGACCCC,-0.354
13,CTACTAGC,0.189
14,CAGATGAC,-0.202
15,AACGGCAT,0.193
16,ACAACAGT,0.0383
17,ACTCAAAC,0.152
18,AACAATTG,0.115
19,GGGGGGTA,-0.408
20,GACTTACC,-0.123
21,CTCAGCGC,-0.114
22,GATCAACA,0.237
23,CGTGAGAC,-0.106
24,CACGAGCA,-0.151
25,AAACCTGG,0.0176

row,Sequence,PBM E-score
1,ATCCGCGC,-0.0147
2,TCCGCAGA,-0.0907
3,AATCTCGG,-0.00202
4,GGGCGCGA,0.0038
5,CTCCAAGC,-0.153
6,AGAGGAAG,-0.00302
7,CATACATG,0.147
8,ACTCGCAA,-0.0107
9,ATGTTACG,-0.00837
10,CAGCCTCC,-0.313
11,CCCGCGGC,-0.0958
12,AAATCACG,0.222
13,CCCTCAGC,-0.263
14,AGCCCCGG,-0.0989
15,GGCCTCAA,-0.0245
16,ACGCCCGG,-0.282
17,GGGTTTTA,-0.0797
18,CTTTACTC,0.116
19,CGGGGCTA,-0.19
20,AAGTCTTG,-0.0842
21,AGTACCCA,0.0112
22,TCCTTAAA,0.1
23,CTGCTCCC,-0.25
24,ATAAAGTA,0.306
25,AAAAGCTA,0.141

row,Sequence,PBM E-score
1,CACCCTCA,-0.207
2,ACCAGGCG,-0.125
3,GAAGTCTA,-0.0771
4,ATGCAAGA,0.149
5,AGGATAAT,0.36
6,AACATCTT,0.0167
7,AGCATCGA,-0.0226
8,TGTGCGAA,-0.002
9,AAAACATT,0.202
10,CCATTAAG,-0.00675
11,GCAATGAC,-0.0882
12,TCCCACAA,-0.0618
13,CGGTAGTC,-0.0775
14,TAATAAGA,0.184
15,CTTATTCA,-0.0207
16,ATTAAAAT,0.276
17,ATCCCTGG,-0.0953
18,CGGGACTC,-0.358
19,GACGTGGC,-0.236
20,CGGAGTAA,0.152
21,AATAACTA,0.227
22,CGTCGAGA,0.0264
23,AGAAATAT,0.299
24,GACCTCTA,-0.147
25,CAAGTAGG,-0.0999

row,Sequence,PBM E-score
1,AAACACGC,0.105
2,GTCATAAA,0.133
3,ACGTCGCG,-0.0367
4,GACGATCA,-0.121
5,AACATCGC,0.0172
6,GCTTTGGA,0.0527
7,AATTGGAT,0.209
8,CAACTCCA,0.016
9,CCTAGGAA,0.233
10,ATAAAGTG,0.244
11,CTGAAGCC,-0.102
12,AATGGAAT,0.221
13,CCTTTACG,0.0586
14,GATGTCTA,0.0177
15,CAGTACGC,-0.0269
16,CTGACTCA,-0.0835
17,ATAGTTTC,0.158
18,ACTAGATA,0.304
19,CAATGTGG,0.00156
20,ATTTTGTC,0.187
21,GGCGAGAC,-0.183
22,AAGTTATT,0.3
23,CAGTCGAA,-0.0676
24,GATCTGAA,0.00071
25,GGCCATCA,-0.0151

row,Sequence,PBM E-score
1,ACCTTCAT,-0.0827
2,ACGCTAAA,0.0831
3,AATACTCC,0.0328
4,CAGTGCCC,-0.144
5,CTTATCCC,-0.16
6,GAACTAAC,0.00327
7,CGTCGGGC,-0.336
8,CGATAACC,0.0582
9,GCCTCTAA,-0.0298
10,CCTTTCCA,-0.125
11,ATCCATCA,0.0199
12,GGTCAGAC,-0.277
13,CTGCCCGC,-0.153
14,GACCTTTA,0.08
15,GCACGGGA,-0.15
16,GAAGCGTA,-0.0763
17,CGGTTATA,-0.092
18,AACTGGAT,0.237
19,AATCTATC,0.137
20,ACTGAGGC,-0.0826
21,AAGAGGAT,0.00953
22,ACAAGATC,-0.0214
23,CTATGCAG,-0.066
24,AAAATTGT,0.261
25,AGTCATTC,0.0855

row,Sequence,PBM E-score
1,ATGCGACG,0.119
2,AGGAACAC,0.193
3,CTTACGAA,0.0413
4,TACTGGCA,-0.0764
5,GAGGGCAA,-0.0744
6,AACCTACA,0.185
7,TACTCGGA,0.176
8,CACCTAGA,-0.0844
9,ATTCATCA,0.171
10,ACAGCCAG,0.0325
11,CGATGGAA,-0.00848
12,AACACTGG,-0.072
13,ACTCTTCC,-0.0223
14,CGGAAGGC,-0.179
15,ACGCGGCC,-0.213
16,GAGTAGAA,0.0517
17,GAAGACCA,-0.012
18,ATAAGAGC,0.139
19,AGGTAGTA,0.149
